Results taken from PubChem BioAssay AID686979 (National Center for Advancing Translational Sciences (NCATS), 2013).
The whole screen tested about 420,000 compounds, of which about 50,000 (12%) were called active. This list was built around the results that the source calls inconclusive (neither active nor inactive); the mix of calls is not that of the screen. The call rests on the fitted dose curve; in most records, active means well fitted inhibition curve with a large enough effect; inconclusive means small, poorly fitted or top-dose-only effect; inactive means flat fitted curve, though single readings scatter. No potency is given beside an inconclusive call; the fits are too rough.

Assay: qHTS for Inhibitors of human tyrosyl-DNA phosphodiesterase 1 (TDP1): qHTS in cells in presence of CPT; further: nearly all actives have a fitted effect of over 55% in size
Conditions: chicken DT40 Tdp1-/-;hTDP1 cells + 20 nM CPT, ATP luminescence, 48 h; activity change, negative = growth inhibition: at 46.2 µM (top of the series) unless noted
In short: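 Cell growth measured by CellTiter-Glo luminescence after a minimum 48 h, 37 C compound exposure with 20 nM CPT in Tdp1-knockout DT40 cells stably expressing hTDP1, seeded 400/well; qHTS titration format.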
On the % scale 0 is the no-effect control and ±100 the full control effect; potency means the concentration at half of the fitted maximal effect; tags describe the fitted curve by direction and shape.

Q: With `Cc1ccc(C(=O)NCCSc2c(C)[nH]c3ccccc23)cc1C` as the compound, how does the Potency read?
A: active: 18.4 µM

Q: With `Cc1[nH]c2ccc(C(=O)OC(C)C(=O)NC3(C#N)CCCCC3)cc2c1C` (stereo not drawn) as the compound, how does the Potency read?
A: inconclusive [inhibitor, single point]

Q: For `CCOC(=O)c1c(C)[nH]c(C(=O)COC(=O)c2cccnc2Cl)c1C`, which Potency is on record?
A: inconclusive [inhibitor, single point]

Q: With `CCOCCCNC(=O)c1cc2cc3cc(OC)ccc3nc2o1` as the compound, how does the Potency read?
A: active: 16.4 µM

Q: Which Potency does the source give for `O=S(=O)(Nc1cccc(Cl)c1)c1ccc(-n2cccn2)cc1` here?
A: inactive

Q: Which Potency does the source give for `NC1=NC(c2ccccc2C(F)(F)F)N(c2ccc(F)c(Cl)c2)C(N)=N1` (stereo not drawn) here?
A: active: 20.6 µM

Q: For `Cc1ccc(-c2nn(CCC(=O)Nc3ccc(Cl)c(Cl)c3)c(=O)c3ccccc23)cc1`, which Potency is on record?
A: inconclusive [inhibitor, single point]

Q: Which Potency does the source give for `Cc1cc(C)c2c(-n3cccc3)c(NC(=O)OCc3ccccc3)sc2n1` here?
A: inactive

Q: With `COc1ccc(-c2cc(-c3nc4ccccn4c3NCc3ccccc3)ccc2OC)cc1` as the compound, how does the Potency read?
A: inconclusive [inhibitor, single point]

Q: For `CC1CCN(CCCNC(=O)c2ccc(CSCc3cccc(Cl)c3)o2)CC1`, which Potency is on record?
A: inconclusive [inhibitor, single point]

Q: For `N=c1n(CCN2CCCCC2)c2ccccc2n1CC(O)c1ccc(Cl)c(Cl)c1` (stereo not drawn), which Potency is on record?
A: active: 3.66 µM

Q: With `O=C(COc1ccc(Cl)cc1)NCCS(=O)(=O)N1CCN(c2ccccc2F)CC1` as the compound, how does the Potency read?
A: inconclusive [inhibitor, single point]

Q: With `S=C1NCCN1CC1CCN(CC2CCCC2)CC1` as the compound, how does the Potency read?
A: inconclusive [inhibitor, single point]

Q: Which Potency does the source give for `O=C(NCc1ccco1)c1cccc(Nc2nc3ccc(Br)cc3[nH]2)c1` here?
A: inconclusive [inhibitor, single point]

Q: With `CCC(C(=O)NC1CCCC1)N(C(=O)c1snc(C(N)=O)c1N)c1ccc(C)cc1C` (stereo not drawn) as the compound, how does the Potency read?
A: inconclusive [inhibitor, single point]

Q: Which Potency does the source give for `O=C(CSc1nnc(-c2ccccc2)c(-c2ccccc2)n1)N1CCc2ccccc21` here?
A: active: 15.8 µM

Q: Which Potency does the source give for `Cc1cc(F)ccc1C(O)c1ncc(-c2ccccc2F)[nH]1` (stereo not drawn) here?
A: inconclusive [inhibitor, single point]

Q: For `CCCN(CCC)CC(O)CN(c1cc([N+](=O)[O-])ccc1OC)S(=O)(=O)c1ccccc1` (stereo not drawn), which Potency is on record?
A: inconclusive [inhibitor, partial curve, poor fit]

Q: With `COc1ccccc1CNc1nc(-c2ccccc2CN(C)C)nc2ccccc12` as the compound, how does the Potency read?
A: active: 11.6 µM

Q: Which Potency does the source give for `COc1cccc(CN2CCN(Cc3cc4ccccc4[nH]3)CC2CCO)c1` (stereo not drawn) here?
A: inconclusive [inhibitor, single point]

Q: With `Cc1ccc(CCNC(=O)c2cc3c(s2)-c2ccccc2OC3)cc1` as the compound, how does the Potency read?
A: inconclusive [inhibitor, single point]

Q: With `CCCCCn1c(N)c(-c2nc3ccccc3s2)c2c([N+](=O)[O-])nn(C)c(=O)c21` as the compound, how does the Potency read?
A: inconclusive [inhibitor, single point]

Q: With `COc1cc(N(C)C)ccc1/C=C1\C=Cc2ccccc21` as the compound, how does the Potency read?
A: inconclusive [inhibitor, single point]

Q: Which Potency does the source give for `CCOC(=O)CSc1cc(C)c(C#N)c2nc3ccccc3n12` here?
A: inconclusive [inhibitor, single point]

Q: Which Potency does the source give for `O=C(C[n+]1cc(-c2ccc(Cl)cc2)n2c1CCC2)Nc1nc(-c2ccc(F)cc2)cs1` here?
A: inconclusive [inhibitor, single point]

Q: With `COc1nc(NC23CC4CC(CC(C4)C2)C3)nc(OC)n1` as the compound, how does the Potency read?
A: inconclusive [inhibitor, single point]

Q: For `COc1ccc(C(O)c2nc3ccccc3n2C)cc1OC` (stereo not drawn), which Potency is on record?
A: active: 9.2 µM

Q: Which Potency does the source give for `Cc1ccc(NC(=O)C2Oc3ccccc3OC2C)cc1` (stereo not drawn) here?
A: inactive

Q: Which Potency does the source give for `Cc1cccc(NC(c2cccc(F)c2)c2ccc3ccc(C)nc3c2O)n1` (stereo not drawn) here?
A: active: 8.2 µM

Q: With `CC(N)C(=O)NC(C(=O)N1CCCC1C(=O)NC(c1ccccc1)c1ccccc1)C(C)C` (stereo not drawn) as the compound, how does the Potency read?
A: inconclusive [inhibitor, single point]

Q: Which Potency does the source give for `O=C(NC1CC1)c1cccc(NC(=O)C2CCN(S(=O)(=O)c3ccccc3C(F)(F)F)CC2)c1` here?
A: inconclusive [inhibitor, partial curve]

Q: Which Potency does the source give for `CC1CCC(NC(=O)c2ccc3c(c2)N(Cc2ccccc2F)C(=O)c2ccccc2S3)CC1` (stereo not drawn) here?
A: inconclusive [inhibitor, single point]

Q: Which Potency does the source give for `CCCCNC(=O)C[C@@H]1C[C@@]2(C(=O)OC)CCCCC=C2N(CCc2ccc(OC)c(OC)c2)C1=O` here?
A: inconclusive [inhibitor, full curve, poor fit]

Q: For `NCCNCCNCCN`, which Potency is on record?
A: inactive

Q: With `COc1ccc(-n2nc(C(=O)Nc3ccc(OC)c(OC)c3)c3c4ccccc4n(C)c3c2=O)cc1` as the compound, how does the Potency read?
A: inconclusive [inhibitor, single point]

Q: For `CN(C)c1cc[n+](CC(=O)Nc2c(Cl)cc(Cl)cc2Cl)cc1`, which Potency is on record?
A: active: 7.31 µM

Q: With `NC(=O)CSc1nc2ccc(NC(=O)COc3ccccc3)cc2s1` as the compound, how does the Potency read?
A: inconclusive [inhibitor, partial curve, poor fit]

Q: Which Potency does the source give for `C/C(=N\NC(=O)c1cccs1)c1c(O)cc(C)oc1=O` here?
A: inactive

Q: Which Potency does the source give for `CCc1ccc(C(=O)Nc2nc3ccccc3[nH]2)cc1` here?
A: active: 18.4 µM

Q: Which Potency does the source give for `CC1CCN(S(=O)(=O)c2ccc3c(c2)N(CC(=O)NCc2ccccc2Cl)C(=O)CS3)CC1` here?
A: inconclusive [inhibitor, single point]

Q: With `O=C(Cn1nnc(-c2ccccc2Cl)n1)N1CCN(S(=O)(=O)c2ccc(Cl)cc2)CC1` as the compound, how does the Potency read?
A: inactive

Q: With `COc1cccc(-c2cc(NC=O)c3ncc(-c4cc(OC)c(OC)c(OC)c4)n3c2)c1` as the compound, how does the Potency read?
A: active: 0.517 µM

Q: For `COc1ccccc1CN1CCNC(=O)C1CC(=O)N(C)C1CCOCC1` (stereo not drawn), which Potency is on record?
A: inactive

Q: For `O=C(NC(=S)Nc1ccccc1O)c1ccc(Cl)cc1Cl`, which Potency is on record?
A: active: 18.4 µM

Q: Which Potency does the source give for `Fc1ccc(CN2CCN(c3ncnc4scc(-c5ccc(F)cc5)c34)CC2)cc1` here?
A: active: 16.4 µM

Q: Which Potency does the source give for `c1ccc(-c2cc(-c3ccccc3)c3c(n2)-c2ccccc2OC3)cc1` here?
A: inactive

Q: Which Potency does the source give for `COc1cc2nc(N(CCCN(C)C)C(=O)c3ccc(C(=O)c4ccccc4)cc3)sc2cc1OC` here?
A: inconclusive [inhibitor, single point]

Q: Which Potency does the source give for `CCn1cc(C(=O)NCc2ccccc2OC)c(=O)c2ccc(C)nc21` here?
A: inconclusive [inhibitor, partial curve]

Q: With `CC1CN(C(=O)/C=C/c2ccc3c(c2)OCO3)CC(C)O1` (stereo not drawn) as the compound, how does the Potency read?
A: inactive

Q: With `O=C(NCCC1=CCCCC1)C1CC(=O)N(C2CCCCC2)C1` (stereo not drawn) as the compound, how does the Potency read?
A: inactive

Q: For `O=S(=O)(Nc1ccc(F)c(C(F)(F)F)c1)c1ccc(N2CCCCS2(=O)=O)cc1`, which Potency is on record?
A: active: 20.6 µM

Q: With `COc1ccc(C2C(=O)N(C3CCC(C)CC3)CC(=O)N2Cc2ccc(C)cc2)cc1OC` (stereo not drawn) as the compound, how does the Potency read?
A: inconclusive [inhibitor, single point]

Q: Which Potency does the source give for `Cn1c(N)nc2nc(CCc3ccccc3)c(=O)[nH]c2c1=O` here?
A: inactive

Q: For `CNc1ncnc2ccc(-c3ccccc3CN(C)C)cc12`, which Potency is on record?
A: inconclusive [inhibitor, single point]

Q: For `COc1cccc(OCC(=O)NNC(=O)c2cnccn2)c1`, which Potency is on record?
A: inactive

Q: Which Potency does the source give for `CCCCNc1ccc(-c2nc(-c3ccccc3)no2)cc1[N+](=O)[O-]` here?
A: inactive

Q: For `Cc1ccccc1NCN1C(=O)C2CCC(C)(C1=O)C2(C)C` (stereo not drawn), which activity change, negative = growth inhibition is on record?
A: inconclusive: -35.6% [inhibitor]

Q: Which Potency does the source give for `O=C(O)c1cc2ccccc2c(N=Nc2cccnc2)c1O` here?
A: inconclusive [inhibitor, partial curve, poor fit]

Q: With `Cc1ccc2c(CC(=O)N3CCN(c4cccc(Cl)c4)CC3)coc2c1` as the compound, how does the Potency read?
A: inconclusive [inhibitor, single point]

Q: With `CCOc1ccccc1/C=C/c1nc2ccccc2[nH]c1=O` as the compound, how does the Potency read?
A: inconclusive [inhibitor, single point]

Q: For `O=C(Nc1cccc(C(F)(F)F)c1)C1CCCN(S(=O)(=O)c2cccc3nsnc23)C1` (stereo not drawn), which Potency is on record?
A: active: 16.4 µM

Q: With `COc1cc([N+](=O)[O-])ccc1NC(=O)NCC1CCN(Cc2ccc(Cl)cc2)CC1` as the compound, how does the Potency read?
A: inconclusive [inhibitor, single point]

Q: With `CCOC(=O)c1c(C)[nH]c(C(=O)COc2ccc3c(c2)OCO3)c1C` as the compound, how does the Potency read?
A: inconclusive [inhibitor, single point]

Q: For `COc1ccc(OC)c(CNS(=O)(=O)c2c(C(=O)N3CCC(C)CC3)c(C)n(C)c2C)c1`, which Potency is on record?
A: inconclusive [inhibitor, single point]

Q: With `COc1ccc(-n2c(=O)c(-c3cccc(C#N)c3)nc3cnc(N4CCNCC4)nc32)cc1` as the compound, how does the Potency read?
A: inactive

Q: With `c1ccc(-n2cnc3cc(NCc4cccs4)ccc32)cc1` as the compound, how does the Potency read?
A: inactive

Q: For `O=S(=O)(c1cccc(C(F)(F)F)c1)N1CCC(CO)(CCCc2ccccc2)CC1`, which Potency is on record?
A: inconclusive [inhibitor, single point]

Q: With `CC(=O)N1CC[n+]2c(-c3ccc([N+](=O)[O-])cc3)csc21` as the compound, how does the Potency read?
A: active: 18.4 µM

Q: Which Potency does the source give for `COc1cc(-c2noc(C)c2C(=O)NCCCN2CCOCC2)cc(OC)c1OC` here?
A: inactive

Q: For `CCn1c(/C=C\c2ccccc2C)nc2ccccc2c1=O`, which Potency is on record?
A: active: 23.1 µM

Q: Which Potency does the source give for `COC(=O)COc1ccc(NC(=O)c2ccco2)cc1` here?
A: inactive

Q: For `CC(=O)NS(=O)(=O)c1ccc(NC(=S)Nc2ccccc2)cc1`, which Potency is on record?
A: inactive

Q: Which Potency does the source give for `Brc1ccccc1/C=N/Nc1ccccn1` here?
A: inconclusive [inhibitor, single point]
